Test: label from the status in PepcDB records

MEHYISLFVKAVFVENMALAFFLGMCTFIAISKKVETAIGLGIAVIVVQTITVPANNLIYTYLLKDGALAWAGLPEVDLSFLGLLSYIGVIAAIVQILEMLLDKYVPSLYNALGVFLPLITVNCAIMAGSLFMVERDYNLAESTVYGVGSGFSWALAIAALAGIREKLKYSDVPEGLQGLGITFITIGLMSLGFMSFSGVQL
protein production: failed

MESMKPMYRSRSWRRKYVRTPGGRVVVHFERKKPKIAHCAICGRPLNGIPRGRPVEMRKLPKTKKRPERPMPYLCPRCMRRVMKEQIRSQIMKGLEHHHHHH
protein production: failed
